From ChEMBL document CHEMBL4888484, “Replenishing the malaria drug discovery pipeline: Screening and hit evaluation of the MMV Hit Generation Library 1 (HGL1) against asexual blood stage Plasmodium falciparum ,using a nano luciferase reporter read-out” (2022) come the findings set out here.

SMILES strings stand for the structures. Out of some 150,000 compounds screened, about 540 (0.36%) showed an effect of 50% or more. The list shows a part of the results.

The assay has as its system Plasmodium falciparum. As to the kind of experiment: Primary screen in NF54 nanoGlo assay, in single point, at 2uM, 72h; a lower Z score goes with more inhibition. Conditions: timepoint 72 hour. It counts as functional, Erythrocyte.
For `CC(=O)N1CCN(C(=O)c2cnn(-c3ncc(C)c(-c4cccs4)n3)c2C2CC2)CC1`, the % Inhibition (in general, the change of the read-out against control, counted positive when it falls) was -17% and the Z score was 2.17.
The corresponding values for `CC(C)NC(=O)c1ncn2c1C(=O)N(C1CC1)[C@](C)(C(=O)NC1CCCC1)C2` are -5% and 0.53.
On to `CC[C@H]1C(=O)NCCCN1Cc1nc(C)cc(O)n1`, for which the “% Inhibition” value is given as -9% and the Z score amounted to 1.4.
On to `CNS(=O)(=O)[C@H]1CCN(CC(C)(C)c2ccccc2)C1`, for which the “% Inhibition” value was 2% and the Z score is reported as -0.33.
The matching figures for `CC1CCN(C(=O)N2CCN(c3cccc(Cl)c3)CC2)CC1`: -5% and 0.91.
Take `O=C(c1cc(-c2cccnc2)n(-c2ccccc2)n1)N1CCCC1`: the “% Inhibition” value is -9% and the Z score amounted to 1.17.
The matching figures for `O=C(NS(=O)(=O)c1ccc(NS(=O)(=O)c2cccc3nsnc23)cc1)c1ccccc1`: -24% and 2.84.
The corresponding values for `CCc1nnc(CNc2nccc(C3CCCC3)n2)s1` are 7% and -0.93.
`CC(=O)N1CCC(N2C[C@@H]3Oc4ccc(C(F)(F)F)cc4C(=O)N(C)[C@@H]3C2)CC1`: the “% Inhibition” value was -4% and the Z score is 0.67.
Regarding `CCN[C@H](C)CNC(=O)c1cc(Br)ccc1O`, the “% Inhibition” value is -2% and the Z score is 0.27.
With `CCn1ncnc1CNc1ccc(Br)cc1CO`, the “% Inhibition” value is given as -4% and the Z score was determined as 0.71.
For `Fc1cnccc1N1CCC[C@H](CN2CCCCC2)C1`, the “% Inhibition” value is -14% and the Z score came out at 2.79.
As for `CC[C@H](Nc1cc(OC)ncn1)c1nccs1`, the “% Inhibition” value is given as -1% and the Z score came out at 0.1.
The matching figures for `CC(C)Cc1nc(NC(=O)[C@H](c2ccccc2)n2cnnn2)n[nH]1`: -12% and 1.51.
`CCC1CC(C)CN1C(=O)CN1C(=O)NC(CC)(CC)C1=O` (centres undefined): the “% Inhibition” value was 6% and the Z score is -1.06.
With `COc1ccc(CN(C(=O)CC(C)(C)C)C(C)C)cc1OS(C)(=O)=O`, the “% Inhibition” value is -14% and the Z score was 1.33.
Take `Cn1cc(C(=O)N2CCc3nc(NC(=O)c4ccco4)sc3C2)nn1`: the “% Inhibition” value is reported as -14% and the Z score turned out to be 2.1.
The matching figures for `CCN1CCc2ccc(OCC(=O)NCc3ccccc3)cc2[C@@H]1c1ccccc1`: 17% and -1.71.
As to `Cc1nc(C)c(-c2nc3c([nH]2)c(C)nn3Cc2cccc(Cl)c2)nc1C`, the “% Inhibition” value stood at 1% and the Z score is -0.17.
Turning to `CCCc1nc(Cn2c(C)nc(C#N)c2C#N)cs1`, the “% Inhibition” value is -10% and the Z score came out at 1.18.
The corresponding values for `Cc1ccc(C(=O)N[C@@H](CC(C)C)c2nc3ccccc3n2CC(=O)Nc2ccc3c(c2)OCO3)cc1` are -1% and 0.11.
The corresponding values for `CCc1nnc2ccc(N3CCC[C@H]3C3CCCC3)nn12` are 3% and -0.43.
Regarding `CC1CC(C)CN(C(=O)CCCC(=O)N2CCN(c3ccccn3)CC2)C1` (centres undefined), the “% Inhibition” value is on record as -9% and the Z score turned out to be 1.15.
For `CCn1cc(S(=O)(=O)NC(=O)Cc2ccc(F)cc2)cn1`, the “% Inhibition” value is on record as -8% and the Z score is 1.12.
Consider `CC(=O)N1CCN(C(=O)CN2CCCCC[C@H]2c2ccc(C)o2)CC1`, for which the “% Inhibition” value is listed as -14% and the Z score is on record as 1.28.
The corresponding values for `COc1ccccc1-c1n[nH]c(NC(=O)CN2CCNC(=O)C2)c1C` are -2% and 0.45.
Consider `COCC(=O)N(C)c1ccc(F)c(Cl)c1`, for which the “% Inhibition” value is given as -1% and the Z score is reported as 0.22.
For the molecule `COc1cc2c(cc1OC)[C@@H](NC(=O)C(F)(F)F)CNC2=O`, the “% Inhibition” value is given as 31% and the Z score was -3.99.
Turning to `Cc1cc(Nc2ccc(F)cc2)nc2nn(Cc3cc(F)cc(F)c3)c(=O)n12`, the “% Inhibition” value is reported as -29% and the Z score turned out to be 3.12.
`Cc1cnc(-c2ccccc2)n1CCNC(=O)NC[C@H]1CCCO1`: the “% Inhibition” value was -8% and the Z score amounted to 0.93.
As for `CC(C)n1ncc2cc(S(=O)(=O)N3Cc4ccccc4[C@@H]3C)ccc21`, the “% Inhibition” value amounted to 33% and the Z score is listed as -3.69.
Regarding `Cc1cccc2c(-c3cc(N)nc(N)n3)c[nH]c12`, the “% Inhibition” value is 85% and the Z score is given as -9.19.
For `O=C1c2ccccc2C(=O)N1Cc1ccc2[nH]c3c(c2c1)CCCC3`, the “% Inhibition” value is reported as -11% and the Z score amounted to 1.39.
Take `c1cnc(-c2csc(NCC3CCC3)n2)cn1`: the “% Inhibition” value is recorded as -12% and the Z score stood at 1.05.
Consider `CC(C)(C)c1ccc2c(c1)CN(C(=O)c1nc(=O)[nH][nH]1)CC2`, for which the “% Inhibition” value is -4% and the Z score is 0.49.
The matching figures for `CC(C)c1nn(C)c2sc(C(=O)N(C)Cc3cnn(C)c3)cc12`: -6% and 0.75.
Regarding `COCCC1(C(=O)N2CC3CCC2C3)CCC1` (centres undefined), the “% Inhibition” value came out at 7% and the Z score was -0.98.
The matching figures for `CCCCNC(=O)C(=O)Nc1ccc(C(C)(C)C)cc1`: -5% and 0.81.
For the molecule `C[C@@H](c1nnnn1C)S(=O)(=O)Cc1ccccc1C1CC1`, the “% Inhibition” value is -15% and the Z score turned out to be 1.84.
Consider `CCN(CC1CCN(c2ccccn2)CC1)C(=O)Cn1cnnn1`, for which the “% Inhibition” value was -1% and the Z score was determined as 0.2.
In the case of `O=C(NCc1ccccc1)C1CCN(S(=O)(=O)c2ccc3c(c2)CCCN3C(=O)C2CCC2)CC1`, the “% Inhibition” value is -12% and the Z score turned out to be 2.31.
For the molecule `O=C1NCCCn2cc(nn2)CC2(CCN(Cc3cccc4ncccc34)CC2)C(=O)N[C@H]1Cc1ccccc1`, the “% Inhibition” value is recorded as -23% and the Z score came to 2.93.
